In paper PMC12040169 (PLOS Biology, 2025):
This is one part of the list.

System: T1, C. trachomatis L2/434/Bu expressing GFP (CTL2-GFP)
T1 construct: L2/434/Bu GFP intracellular growth in HeLa cells
Set-up: species or system HeLa; C. trachomatis total inclusion area by high-content imaging, normalised to DMSO
Conditions: total inclusion area; 28.5 h, 10 µM; inhibitor
In short: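 Host cell viability was gauged from Hoechst-stained nuclei counts, while chlamydial growth was taken from total inclusion area and inclusion number per well. Cells were fixed and imaged by high-content microscopy once bulk GFP and resorufin fluorescence had been measured.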

Point of comparison: `CC(=O)CSc1nnc(COc2ccc(C3CCCCC3)cc2)n1-c1ccccc1` [CBK265026], “% of control remaining” value 89.0881. Against it:
- Cc1ccc(Nc2cc(-c3cccc(N)c3)ncn2)cc1NS(C)(=O)=O [CBK091145] — higher, 135.41
- O=C(O)CCC(=O)Nc1nc(-c2ccccc2)cs1 [CBK286947] — lower, 58.8401
- CC(C)CCc1csc(C2CN3CCCC3CO2)n1 (stereo not shown) [CBK304266] — lower, 63.2756
- O=C(NC(=S)CC1C=NCS1)c1ccccc1 (stereo not shown) [CBK020794] — lower, 82.1868
- CS(=O)(=O)N1CC2(CCN(CCc3ccccc3)CC2)c2ccccc21 [CBK084015] — higher, 102.668
- Cc1cc(Cn2nnc(-c3cccnc3)n2)cc(C)c1O [CBK291130] — higher, 99.8127
- N#Cc1sc2c(c1NC(=O)C(F)(F)F)CCCC2 [CBK019233] — lower, 72.7843
- O=C(O)CCc1ccc(-c2ccc(N3CCN(CCN4CCCC4)CC3)nc2)cc1 [CBK037796] — higher, 119.318
- CC(C(=O)NC1(C#N)CCCCC1)N1CCOC(Cn2cncn2)C1 (stereo not shown) [CBK305359] — lower, 31.5779
- Cc1cc(C)n(C(C(=O)NCCOc2ccc(F)cc2)C(C)C)n1 (stereo not shown) [CBK281595] — higher, 101.613
- O=C(c1ccc(CCN2CCCC2)nc1)N1CCN(CCc2ccccc2)CC1 [CBK200227] — higher, 102.108
- Cc1nc(NC(=O)C2CC(=O)N(c3cccc(C(C)C)c3)C2)sc1-c1n[nH]c(=S)n1C (stereo not shown) [CBK295306] — higher, 119.842
- N#Cc1ccc(N)c2ccccc12 [CBK015754] — higher, 94.2598
- COc1ccc(-c2cc(C(=O)NCc3cc(Cl)cc(Cl)c3)cnc2-c2ccc(Cl)cc2)cn1 [CBK037431] — higher, 123.208
- CC(NCC(O)c1ccco1)c1ccc(C#N)s1 (stereo not shown) [CBK304265] — lower, 31.1802
- COC(=O)CCCC(=O)n1c(=O)n(Cc2ccc(S(C)(=O)=O)cc2)c2ccccc21 [CBK106538] — lower, 75.1745
- CCOC(=O)C1=C(C)N(CCO)C(=O)NC1c1ccccc1Br (stereo not shown) [CBK027192] — lower, 55.0744
- NNC(=O)c1cc(O)n[nH]1 [CBK262669] — higher, 103.272
- Cc1c(NCc2ccccn2)cccc1C(=O)O [CBK269651] — lower, 84.2293
- CCc1cc(-c2n[nH]c(C(=O)O)c2-c2nc(C)cs2)c(O)cc1O [CBK268247] — higher, 96.3458
- CCn1c(=O)n(CC(=O)NCc2ccccc2)c2cccnc21 [CBK283824] — lower, 63.8687
- COc1ccc(-c2cc(C(F)(F)F)nc(SCC(=O)Nc3ccc4c(c3)OCO4)n2)cc1OC [CBK266169] — higher, 131.974
- Oc1cccc(-c2cn3ccnc3c(NCc3ccccn3)n2)c1 [CBK037535] — higher, 117.061
- COc1ccc([C@@]23CC[C@@H](NS(=O)(=O)c4cccc5cccnc45)C[C@@H]2N(C)CC3)cc1OC [CBK056849T] — higher, 104.218
- CCOc1cc2c(cc1CN(Cc1ccc3c(c1)OCO3)CC(C)O)CCC2 (stereo not shown) [CBK286474] — higher, 95.7886
- COc1cc(CNC(=O)c2ccc(-c3ccc(NC(C)=O)cc3)nc2)cc(OC)c1OC [CBK158851] — higher, 109.47
- CN1CCC(=NNC(=O)CSCc2ccccc2Br)CC1 [CBK026542] — lower, 83.8462
- c1ccc(C2CCCNC2)cc1 (stereo not shown) [CBK011753] — higher, 98.1304
- COc1ccc(OC)c(NC(=O)CSc2nnc(-c3ccco3)o2)c1 [CBK267429] — higher, 90.7997
- O=c1[nH]c2ccccc2n1C1CCN(S(=O)(=O)c2ccc(OC(F)(F)F)cc2)CC1 [CBK149690] — higher, 100.913
- CCNc1nnc(SCCC(=O)N2CCN(c3ccc(F)cc3)CC2)s1 [CBK305058] — higher, 89.7784
- CCN(C(=O)c1cnc2scc(C)n2c1=O)c1ccccc1 [CBK287452] — lower, 87.6799
- O=C(Nc1ccc2ncccc2c1)c1ccc(Cl)cc1Cl [CBK159793] — higher, 98.8533
- COc1cncc(-c2cc(N3CCC(N4CCCCC4)CC3)ncn2)c1 [CBK090964] — higher, 118.012
- O=C(O)C1CCC(N2C(=O)C3C4CCC(C4)C3C2=O)CC1 (stereo not shown) [CBK287183] — higher, 98.154
- Cc1nn(C)c(Cl)c1S(=O)(=O)Nc1cc(NC2CCNC2)c2occc2c1 (stereo not shown) [CBK067807C] — lower, 80.2724
- CCC(CO)Nc1cncc(-c2cc(OC)c(OC)c(OC)c2)n1 (stereo not shown) [CBK037882] — higher, 106.105
- Cc1nc(C2(O)CCCN(C3CCCCC3)CC2)sc1COc1ccc(F)c(F)c1 (stereo not shown) [CBK286499] — lower, 64.8541
- CC(C)c1nccn1CC(=O)NCCOc1ccc(F)cc1 [CBK281597] — lower, 88.8573
